Data taken from PubChem BioAssay AID1346428 (National Center for Advancing Translational Sciences (NCATS), 2018).
The campaign covered roughly 48,000 compounds. About 1,200 (2.5%) were called active. About 2% were inconclusive and are not listed.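 Rule for the calls: active = activation of at least 60% and not above a set upper limit (about 1 call in 100 departs from these limits); inconclusive = activation of 40% to 60%, or above that upper limit; inactive = activation under 40%.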 Some of the results follow.

These compounds were tested against Probable G-protein coupled receptor 32 (Homo sapiens) (UniProt O75388) (assay: qHTS for Agonists of Human Resolvin D1 Receptor DRV1). Settings: CHO-K1 GPR32 beta-arrestin PathHunter luminescence, 90 min; at 76.9 µM; active compounds read high; zero percent set by DMSO-only wells.
UniProt O75388, sequence (O75388 whole entry, looked up): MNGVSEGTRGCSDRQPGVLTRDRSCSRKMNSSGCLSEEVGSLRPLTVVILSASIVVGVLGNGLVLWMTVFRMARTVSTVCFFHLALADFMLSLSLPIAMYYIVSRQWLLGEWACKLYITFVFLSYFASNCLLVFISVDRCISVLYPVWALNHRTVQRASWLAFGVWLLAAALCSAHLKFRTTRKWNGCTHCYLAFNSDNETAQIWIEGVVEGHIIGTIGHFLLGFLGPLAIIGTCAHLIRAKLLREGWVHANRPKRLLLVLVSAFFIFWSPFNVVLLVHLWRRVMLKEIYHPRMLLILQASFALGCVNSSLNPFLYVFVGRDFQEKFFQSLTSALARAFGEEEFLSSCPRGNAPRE
Outline: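 Readings come from a cell-based beta-arrestin complementation format: CHO-K1 GPR32 stable cells (2,500/well) treated 90 min with compounds, then beta-Gal substrate added for 1 h before chemiluminescence imaging.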
Note: 0% is about no effect.

| SMILES | activation |
| --- | --- |
| CCCOc1ccc(C(=O)Nc2cc(-c3nc4ccccc4[nH]3)ccc2C)cc1 | inactive: 46% |
| COc1cccc(CN2CCCN(Cc3ccc(F)cc3)S2(=O)=O)c1 | inactive: -9.86% |
| COc1cccc(CNC(=O)c2cc3cc(C)ccc3n2C)c1 | inactive: 7.2% |
| Cc1ccc(O)c(NC(=O)C2=CC(c3cccs3)=NS(=O)(=O)N2C)c1 | inactive: 9.28% |
| COc1ccc(C)cc1NC(=O)C1CCN(S(=O)(=O)Cc2ccccc2)CC1 | inactive: 11.2% |
| Cc1ccccc1OCC(=O)Nc1nnc(SCc2cc(=O)n3cccc(C)c3n2)s1 | inactive: -4.95% |
| COc1cc(N)c(Cl)cc1C(=O)OCCN1CCCCC1 | inactive: -4.15% |
| CCOc1ccccc1NC(=O)Cn1c(=O)n(-c2ccc(Cl)cc2)c(=O)c2oc3ccccc3c21 | inactive: -13% |
| Cn1cc(S(=O)(=O)N2CCc3ccccc32)cc1C(=O)Nc1ccc(C(F)(F)F)cc1 | inactive: -10.1% |
| CC1Cc2cc(S(=O)(=O)CCC(=O)Nc3ccc(F)cc3Cl)ccc2N1C(=O)C1CC1 (stereo not drawn) | inactive: 2.23% |
| Cc1c(NC(=O)C(C)(C)C)cccc1-c1nc2ccccc2s1 | inactive: 3.38% |
| Cc1ccc(-n2nc(C(=O)N3CCN(c4cc(C)ccc4C)CC3)c3c4ccccc4n(C)c3c2=O)cc1 | inactive: 41% |
| CCc1ccc(NC(=O)CSc2nc3c([nH]c4ccccc43)c(=O)n2C)cc1 | inactive: -13.4% |
| Cn1c(=O)n(C)c2cc(N3CCCCC3)c(NC(=O)Nc3ccc(Br)cc3)cc21 | inactive: 34.2% |
| CCN(CC)c1ccc(NC(=O)Cn2cc3c(n2)CCCC3)c(C)c1 | inactive: -4.77% |
| Cc1ccc(CNC(=O)C2CCCN(c3nn4cc(-c5ccc(C)cc5)nc4s3)C2)cc1 (stereo not drawn) | inactive: -15% |
| Cc1ccc(-n2c(=O)c3ccc(C(=O)NCc4ccccc4Cl)cc3n(Cc3cccc(F)c3)c2=O)cc1 | inactive: -12.9% |
| CCOC(=O)c1cc2c(=O)n3ccccc3nc2n(CC2CCCO2)c1=NC(=O)c1ccccc1OCC (stereo not drawn) | inactive: -17.7% |
| COc1ccc(N2CCN(C(CNC(=O)c3c(F)cccc3F)c3ccc4c(c3)OCO4)CC2)cc1 (stereo not drawn) | inactive: -33.5% |
| Cc1oc2ccc(O)c(CN3CCN(C)CC3)c2c1C(=O)Nc1cccc(C(F)(F)F)c1 | inactive: 17.9% |
| COc1cccc(CNC(=O)C2(c3cccs3)CCOCC2)c1 | inactive: 23.5% |

| SMILES | activation |
| --- | --- |
| O=C(CSc1nc2c([nH]c3ccccc32)c(=O)n1-c1cccc(Cl)c1)N1CCOCC1 | inactive: 26.5% |
| CCCCCC(=O)Nc1ccc(NC(=O)c2cc3ccccc3o2)c(OC)c1 | active: 121% |
| CC(C)c1nc2n(n1)C1(CCCCC1)[C@@H]1CCCC[C@@H]1N2 | inactive: -2.05% |
| CCOC(=O)c1c(NC(=O)CSc2cn(CCNC(=O)c3ccccc3OC)c3ccccc23)sc2c1CCC2 | inactive: -16.2% |
| COc1ccc(-c2nc3c4ccccc4n(CC(=O)N4CCN(c5ccc(F)cc5)CC4)c(=O)n3n2)cc1 | inactive: 10.2% |
| CCOc1ccc(-n2c(CC)nc3c(cnn3-c3ccc(Cl)cc3)c2=O)cc1 | inactive: 5.01% |
| O=C(Cn1c(=O)c2ccccc2n(CC(=O)Nc2ccc(F)cc2)c1=O)NCCc1ccccc1 | inactive: 1.86% |
| Cc1cccc(Cn2c(C)c(CNC3CCCCCC3)c(C(=O)O)c2C)c1 | inactive: -6.39% |
| COc1c(Cl)cc(C(=O)N(Cc2ccc(C)o2)C2CCS(=O)(=O)C2)cc1Cl (stereo not drawn) | inactive: -1.77% |
| Cc1oc(-c2cccc(Cl)c2)nc1CN1CCCC(C(=O)N2CCN(c3ccc(F)cc3)CC2)C1 (stereo not drawn) | inactive: 44.9% |
| COc1cccc(C(=O)c2cn(CC(=O)NCCc3ccccc3)c3nc(C)ccc3c2=O)c1 | inactive: -11.1% |
| CCOC(=O)N1CCc2c(sc3c2C(=O)NC(c2cc(OC)c(O)c(OC)c2)N3)C1 (stereo not drawn) | inactive: -1.55% |
| CCCN(CCC)CCCNC(=O)Cn1cc2c(n1)-c1c(oc(C(=O)N3CCCC3)c1C)CC2 | inactive: 4.44% |
| CCCNC(=O)C(CC)n1nc(CC)n2c(cc3oc(C)cc32)c1=O (stereo not drawn) | inactive: 2.15% |
| CCOC(=O)c1cc2c(=O)n3ccccc3nc2n(CC2CCCO2)c1=NC(=O)c1ccc(OC)cc1OC (stereo not drawn) | inactive: -8.54% |
| CCOc1ccc(NC(=O)NCc2ccc3c(c2)CCN3C(C)=O)cc1 | inactive: 16.5% |
| Cc1cc(C)n(-c2nc3ccccc3nc2N2CCN(c3cccc(C)c3C)CC2)n1 | inactive: -3.02% |
| Cc1ccc(C(=O)c2oc3ccccc3c2NC(=O)COc2ccccc2Cl)cc1 | inactive: 23.1% |
| COc1cccc(NC(=O)Cn2c(=O)n(CCc3ccccc3)c(=O)c3c4c(sc32)CN(C(C)=O)CC4)c1 | inactive: -5.76% |
| COc1cccc(CNC(=O)CSC2=Nc3ccccc3C3=NC(C(C)C)C(=O)N23)c1 (stereo not drawn) | inactive: -4.82% |
| Cc1ccccc1NC(=O)CCC(=O)N1CC(C)Sc2ccccc21 (stereo not drawn) | inactive: -25% |

| SMILES | activation |
| --- | --- |
| Cc1cccc(C)c1NS(=O)(=O)c1ccc(NS(=O)(=O)c2ccc3c(c2)OCCO3)cc1 | inactive: 3.18% |
| O=C(Nc1noc2ccccc12)c1ccc(F)cc1 | inactive: -23.8% |
| CCOC(=O)c1ccc(NC(=O)C2(S(=O)(=O)c3ccc(Cl)cc3)CC2)cc1 | inactive: -9.83% |
| COc1ccc(CNC(=O)c2cc(=O)c3cc(C)ccc3o2)cc1 | inactive: 30.7% |
| C=Cc1ccc(COc2ccc3oc(-c4ccccc4)c(C(=O)OCC)c3c2)cc1 | inactive: -1.51% |
| COc1ccc(C(=O)N(c2ccc(OC)cc2)S(=O)(=O)c2ccc3c(c2)n(C)c(=O)n3C)cc1 | inactive: -26.7% |
| Cc1cccc(N2CCN(C(=O)CCS(=O)(=O)c3ccc4c(c3)oc(=O)n4C)CC2)c1C | inactive: -2.96% |
| CCOC(=O)COc1ccc([N+](=O)[O-])cc1-c1ccnc2cc(-c3ccc(C)cc3)nn12 | inactive: -13% |
| Cc1ccc(-c2nnc(Nc3ccccc3)c3ccccc23)cc1S(=O)(=O)NCc1nc2ccccc2[nH]1 | inactive: 19.3% |
| Cc1ccc(C)c(N2CCN(CCCNC(=O)c3ccc4nc(N5CCCCC5)sc4c3)CC2)c1 | inactive: 25.2% |
| Cc1c(Cl)cccc1NC(=O)Cn1nnc2sc3c(c2c1=O)CCCC3 | inactive: -4.88% |
| O=C(c1cc2ccc3cccnc3c2[nH]1)N1CCN(c2ccc(Cl)cc2)CC1 | inactive: -28% |
| COc1ccccc1C(=O)Nc1cccc(C(=O)OCc2cc(=O)n3nc(C)sc3n2)c1 | inactive: -12.3% |
| NC(=O)CSc1ncc2c(n1)-c1ccccc1N(Cc1ccc(Cl)cc1)S2(=O)=O | inactive: -11.6% |
| O=C(CN1C(=O)C2(SCC(=O)N2c2ccccc2)c2ccccc21)NCc1ccccc1 (stereo not drawn) | inactive: -1.85% |
| CCCCCC(O)CCCC(=O)O (stereo not drawn) | inactive: 5.26% |
| O=C(Nc1cccc(Cl)c1Cl)c1cc(S(=O)(=O)NCCc2ccccc2)ccc1F | inactive: -23.6% |
| Cc1cc(Nc2ccc(Cl)cc2C)nc(-n2nc(C)cc2C)n1 | inactive: -9.87% |
| CC(C)c1noc(-c2ccccc2OCC(=O)Nc2ccccc2[N+](=O)[O-])n1 | inactive: -11.6% |
| Cc1nn(CC(=O)Nc2cc(F)ccc2F)c(=O)c2cccn12 | inactive: -14.4% |
| CC(C)(C)c1ccccc1NC(=O)CSc1nc(-c2cccs2)cc(C(F)(F)F)n1 | inactive: -7.59% |

| SMILES | activation |
| --- | --- |
| O=C(NCc1ccc2c(c1)CCN2C(=O)c1ccc(F)cc1)c1ccco1 | inactive: -33.5% |
| CCOc1ccc(C(=O)Nc2ccc(-n3nncc3-c3ccccc3)cc2)cc1OCC | inactive: -19.5% |
| CCC(=O)Nc1ccc2nc3c(=O)n(C)c(=O)n(C)c3nc2c1 | inactive: 10.1% |
| Cc1c(CNC2CCCCC2)c(C(=O)O)c(C)n1Cc1ccc(F)cc1 | inactive: 9.37% |
| CCC(NC(=O)Nc1cc(OC)ccc1OC)c1c(-n2cccc2)sc2c1CCN(CC)C2 (stereo not drawn) | inactive: -30.2% |
| CCN(C(=O)c1cc2c(=O)n3cccc(C)c3nc2s1)c1ccc(C)c(C)c1 | inactive: -2.79% |
| COc1ccccc1CNC(=O)CCCn1nc(C)c2sc3ccccc3c2c1=O | inactive: -8.46% |
| COc1cccc(NC(=O)C2CCCN(c3nnc(-n4c(C)ccc4C)s3)C2)c1 (stereo not drawn) | inactive: -15.6% |
| Cc1ccc(OCC(=O)OCc2cc(=O)n3nc(-c4cccs4)sc3n2)cc1 | inactive: 16.4% |
| COCCCn1c(=N)c(S(=O)(=O)c2ccccc2)cc2c(=O)n3cc(C)ccc3nc21 | inactive: 35.3% |
| CC(C)(C)OC(=O)N1CCC(c2c(C(=O)N3CCN(c4ccc(Cl)cc4)CC3)cnn2-c2ccc(F)cc2F)CC1 | inactive: -13.3% |
| Cc1ccccc1OCC(=O)Nc1ccc2nc(SCC(=O)N(C)c3ccccc3)sc2c1 | inactive: -0.907% |
| Cn1cc(S(=O)(=O)c2ccc(Cl)cc2)c(=O)c2cc(F)c(N3CCCC3)cc21 | inactive: 1.55% |
| COc1ccc(Cl)cc1NC(=O)c1cc2ccc3ccc(C)[nH]c3c2n1 | inactive: -14.2% |
| COc1ccc(-c2cc(C(=O)Nc3ccc4c(c3)OCO4)no2)cc1OC | inactive: -1.31% |
| COc1cc(NC(=O)c2cc(-c3cccs3)on2)c(OC)cc1Cl | inactive: -13.3% |
| COc1ccc(CNc2nc(-c3ccco3)nn2C(=O)c2ccccc2Cl)cc1 | inactive: -33.3% |
| O=C(c1cc(-c2ccc(Cl)cc2)on1)N(Cc1cccc(F)c1)Cc1ccco1 | inactive: 0.056% |
| C[C@H](Cc1ccc(O)c(O)c1)[C@@H](C)Cc1ccc(O)c(O)c1 | inactive: 30.1% |
| Cn1c(=O)c2nc(SCC(=O)Nc3cc(Cl)cc(Cl)c3)n(C)c2n(C)c1=O | inactive: -11.1% |
